Reference: paper PMC4336329 (PLoS ONE, 2015)
Screen size: about 310,000 compounds; about 14,000 (4.5%) showed an effect of 50% or more. The effect is printed as a negative number. This is one part of the list.

target: human ether-à-go-go-related gene (hERG) potassium channel (human, UniProt Q12809); test: primary screen, population patch clamp on CHO cells stably expressing hERG
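Also: peak tail current of the secondary pulse compared with the same well before compound.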

Chain of human ether-à-go-go-related gene (hERG) potassium channel (Q12809 whole entry, looked up): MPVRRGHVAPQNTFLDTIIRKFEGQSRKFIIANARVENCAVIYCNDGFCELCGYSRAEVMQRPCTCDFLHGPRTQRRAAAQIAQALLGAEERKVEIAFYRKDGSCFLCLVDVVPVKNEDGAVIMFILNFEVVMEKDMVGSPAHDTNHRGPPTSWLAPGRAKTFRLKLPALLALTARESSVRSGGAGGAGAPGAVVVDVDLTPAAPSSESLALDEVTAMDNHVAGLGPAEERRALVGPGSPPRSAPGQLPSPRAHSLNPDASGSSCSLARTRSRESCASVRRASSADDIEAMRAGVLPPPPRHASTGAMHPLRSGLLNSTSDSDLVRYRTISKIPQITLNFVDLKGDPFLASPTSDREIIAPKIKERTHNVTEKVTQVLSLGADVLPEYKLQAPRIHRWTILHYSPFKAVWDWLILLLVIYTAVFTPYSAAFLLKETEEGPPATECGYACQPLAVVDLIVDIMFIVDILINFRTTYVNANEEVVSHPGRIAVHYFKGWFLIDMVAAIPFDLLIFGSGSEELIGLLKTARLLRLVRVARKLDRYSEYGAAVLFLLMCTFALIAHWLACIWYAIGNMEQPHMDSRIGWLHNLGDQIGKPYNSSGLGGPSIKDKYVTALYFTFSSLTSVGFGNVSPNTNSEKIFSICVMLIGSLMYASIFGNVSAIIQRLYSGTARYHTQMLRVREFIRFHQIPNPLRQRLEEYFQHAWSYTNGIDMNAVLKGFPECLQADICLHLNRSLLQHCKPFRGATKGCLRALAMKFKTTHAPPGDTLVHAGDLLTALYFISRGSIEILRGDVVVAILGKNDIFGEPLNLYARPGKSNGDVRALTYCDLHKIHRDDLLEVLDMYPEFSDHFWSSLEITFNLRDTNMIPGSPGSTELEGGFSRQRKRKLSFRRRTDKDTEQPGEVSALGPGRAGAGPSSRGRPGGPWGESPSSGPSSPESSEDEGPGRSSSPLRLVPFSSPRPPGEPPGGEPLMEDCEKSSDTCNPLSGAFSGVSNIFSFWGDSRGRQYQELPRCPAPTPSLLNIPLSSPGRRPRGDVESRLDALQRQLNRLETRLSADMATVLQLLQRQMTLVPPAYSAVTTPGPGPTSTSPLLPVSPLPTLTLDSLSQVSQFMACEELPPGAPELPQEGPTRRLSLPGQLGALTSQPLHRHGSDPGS

SMILES | hERG current change (%, negative = inhibition) at 10uM [%]
CCOC(=O)c1sc(=NC(=O)CCSc2ccccc2)n(C)c1C | -11.8
COc1cc(OC)cc(C(=O)N[C@H](C(=O)NCc2ccccc2)C(C)C)c1 | 7.08
O=S(=O)(c1ccccc1)c1nc(-c2ccccc2)oc1N1CCOCC1 | 4.6
CCN(CC)CCNC(=O)C(=O)NCC1OCCN1S(=O)(=O)c1ccc(Cl)cc1 (centres unmarked) | 2.55
COc1ccc2nccc(C(N)=O)c2c1 | -12.8
O=c1c2ccccc2nc2c3ccccc3c(NCCO)nn12 | -7.34
O=C(COc1ccc([N+](=O)[O-])cc1)N/N=C/c1ccccn1 | -20.9
COc1ccccc1C1CC2CCC(C1OC(C)=O)N2Cc1ccccc1 (centres unmarked) | -10.2
COc1ccccc1C(=O)Nc1ccc(OCC(=O)N2CC(C)OC(C)C2)cc1 (centres unmarked) | 8.05
Cc1ccc(S(=O)(=O)NCC2CCC(C(=O)NCc3cccnc3)CC2)cc1 (centres unmarked) | -21.5
O=C(COC(=O)c1ccccc1O)Nc1cccc(S(=O)(=O)N2CCCC2)c1 | -16.5
CC1(C(=O)NC(=S)N(CCC#N)Cc2cccnc2)CC1(Cl)Cl (centres unmarked) | 27.8
CCOc1ccc(CNCCc2ccc3c(c2)OCO3)cc1 | -77.2
O=c1c2ccccc2ncn1Cc1ccccc1 | 1.28
COc1ccc(CCNC(=O)C/C(C)=N/NC(=O)c2ccc(N)cc2)cc1OC | -8.42
COCCOc1ccc(C(F)(F)F)cc1NC(=O)COC(=O)Cc1c[nH]c2ccccc12 | -11.9
COc1ccc(/C=N/n2cnn(Cc3ccccc3Cl)c2=S)cc1 | 0.0914
CC1CC(C)CN(C(=O)CNC(=O)c2ccc3ccccc3c2)C1 (centres unmarked) | -12.5
CCOC(=O)N1CCN(C(=O)/C(=C/c2cccs2)NC(=O)c2ccc(OC)c(OC)c2)CC1 | -71.2
CC(C)(C#N)Cc1cc(CC(C)(C)C#N)cc(C(C)(C)C)c1 | 11.1
Cc1ccc(CCNC(=O)CN(C)S(=O)(=O)c2cnc[nH]2)cc1 | -10.6
N#Cc1ccccc1Cn1c(=O)n(Cc2ccc(C(=O)NCc3ccco3)cc2)c(=O)c2ccccc21 | -6.39
O=C1OC(c2ccccc2)c2ccc3ccccc3c21 (centres unmarked) | 16.9

SMILES | hERG current change (%, negative = inhibition) at 10uM [%]
CCN(C(=O)CN1CCN(S(=O)(=O)c2cc(Cl)ccc2Cl)CC1)c1c(N)n(Cc2ccccc2)c(=O)[nH]c1=O | -7.08
Cc1c(/C=N\NC(=O)c2cccc(F)c2)cnn1C | 9.4
CC(C)(C)C(=O)NC(=S)Nc1ccccn1 | 19.7
Cc1ccc(NC(=O)CCNC(=O)c2ccc(Br)cc2)cc1S(=O)(=O)N1CCOCC1 | -5.63
COc1ccc(N(C(=O)C(C)C)S(=O)(=O)c2cccc([N+](=O)[O-])c2)cc1 | -2.07
O=C(CSc1nc2ccccc2c(=O)n1-c1ccc(F)cc1F)c1c[nH]c2ccccc12 | -2.65
COc1ccc(C2CC(c3ccc(Br)cc3)=NN2C(=O)CN2CCCC2)cc1 (centres unmarked) | -68.1
Nc1ccccc1SCC(=O)Nc1ccc(N2CCOCC2)cc1 | -2.68
CCCS(=O)(=O)N1CCCC(C(=O)NCCCOCC)C1 (centres unmarked) | -4.05
COc1ccc(CNC(=S)NCc2ccc(F)cc2)cc1OC | -0.604
CN1CCN(c2ncccc2S(=O)(=O)N2CCCCC2)CC1 | 5.29
Cc1ccc(NC(=O)N2CCCC2c2cccs2)cc1 (centres unmarked) | 7.41
Cc1nn(CC2CC2)c(=O)n1-c1ccc(Cl)cc1 | -3.1
CCNS(=O)(=O)c1ccc(OC)c(C(=O)NC2CCCCC2)c1 | 13.6
CCc1ccc(OCCNC(=O)c2ccco2)cc1 | -2.49
C/C(=C\c1ccc(Br)cc1)C(=O)c1c(C)cc(C)[nH]c1=O | 8
COC(=O)CSc1nnc(-c2ccncc2)n1N | 22.7
CCOC(=O)c1nnc(-c2ccccc2)nc1Sc1c(Cl)cccc1Cl | -2.75
CC1=C(C(=O)Nc2ccc(C)cc2C)C(c2cccc([N+](=O)[O-])c2)n2nc(C(=O)OC(C)C)nc2N1 (centres unmarked) | 3.39
COc1cc(SC)ccc1C(=O)Nc1c(Cl)cncc1Cl | -13.9
COC(=O)Nc1ccccc1C(=O)N1CCN(c2ccc(C)cc2)CC1 | -0.615
O=C(O)c1cc2sccc2s1 | 4.87
O=C(COc1ccccc1[N+](=O)[O-])N/N=C/c1cccs1 | 3.25

SMILES | hERG current change (%, negative = inhibition) at 10uM [%]
O=C(OCn1nnc2ccccc2c1=O)c1ccc2ncsc2c1 | -1.12
COc1ccc(-c2csc(-n3ncc(-c4cccs4)c3N)n2)cc1 | 22.5
COc1ccc(N(CC(=O)NC2CCCC2)C(=O)Cn2nnc(-c3ccc(OC)c(OC)c3)n2)cc1 | 2.66
COc1cccc(C(=O)O/N=C(\N)c2ccc([N+](=O)[O-])cc2)c1 | 17.6
Nc1cc2c3c(cccc3c1)C(=O)N(CCN1CCCC1)C2=O | -6.87
Cc1ccc(NC(=O)COC(=O)CN2CSCC2=O)cc1C | -2.4
Cc1ccc(C(=O)N[C@H](C(=O)OCC(=O)Nc2cccc(S(N)(=O)=O)c2)C(C)C)cc1 | -41.7
Clc1ccsc1-c1ccnc(-n2cccc2)n1 | 11.1
FC(F)(F)c1ccc(C2[C@H]3CN(Cc4cccnc4)[C@H](c4ccccc4)C34CC2(c2ccccc2)C4)cc1 (some centres unmarked) | -2.57
Cc1ccc(C(=O)NCCn2c(N)c(C#N)c3nc4ccccc4nc32)cc1 | 5.37
CCOc1c(Br)cc(CNc2ccc3c(c2)OCCO3)cc1OC | 5.89
CC(C)c1ccc(CN2CCN(C(=O)CSc3nnnn3C3CC3)CC2)cc1 | -28.1
COc1ccc(N2CCN(C(=O)CN=C3NS(=O)(=O)C(c4ccc(C)cc4)=C3C)CC2)cc1 | -5.05
Cc1cccc(C)c1-n1c(C)cc(/C=N\Nc2ccc([N+](=O)[O-])cn2)c1C | 15.2
CCOc1ccccc1-c1nc(SCC(=O)O)n[nH]1 | -6.75
O=C(O)C1C2C=CC(C3CC23)C1C(=O)N1CCc2ccccc21 (centres unmarked) | 3.86
CNC(=O)C(=O)N/N=C/c1cccnc1 | -2.6
CCCCN(C(=O)CSCc1c(C)noc1C)c1c(N)n(CCCC)c(=O)[nH]c1=O | 13.2
N#Cc1ccccc1NC(=O)CN1C(=O)NC2(CCCC2)C1=O | 14.7
COc1cc(C(=O)NCCc2cn3ccc(C)cc3n2)cc(OC)c1OC | -27
Cc1cc(O)c(/C=N/Nc2ccc(Cl)cc2)c(=O)o1 | 13.6
CCCCc1nc(SCC(=O)Nc2ccc(S(N)(=O)=O)cc2)n[nH]1 | -3.6
CCOC(=O)N1CCN(C(=O)C2CCN(S(=O)(=O)c3cc(OC)ccc3OC)CC2)CC1 | 21.5

SMILES | hERG current change (%, negative = inhibition) at 10uM [%]
C=CCNC(=S)N(Cc1ccccc1)Cc1ccccc1 | -6.16
CCN(CC)CCCN=Cc1c(O)n(-c2ccccc2F)c(=O)[nH]c1=O | 18.5
O=C(O)CCC(=O)Nc1ccccc1C(=O)NC1CCCCC1 | 11
O=C(CNC(=O)c1cccc(Br)c1)N/N=C/c1cn[nH]c1-c1ccccc1 | -30.9
Cc1ccc(C(=O)c2c(NC(=O)c3ccccc3C)sc(C)c2C)cc1 | -3.58
Cc1ccc(N2C(=O)C(NC(=O)c3ccccc3F)(C(F)(F)F)C3=C2CC(C)(C)CC3=O)cc1 (centres unmarked) | 6.43
O=C(Nc1ccccc1N1CCN(c2ccccc2)CC1)C1CCCCC1 | -15.9
COc1cc(/C=N/OCC(=O)Nc2ccc(OC(F)F)cc2)ccc1OCc1ccccc1 | -24.9
Cl.OC(CNCc1ccccc1)COCc1ccc(Cl)cc1 (centres unmarked) | -50.3
COc1ccc(OC)c(C2C=C(C34CC5CC(CC(C5)C3)C4)NC(=S)N2)c1 (centres unmarked) | 3.77
CS(=O)(=O)Nc1ccccc1NS(C)(=O)=O | 16.7
COC(=O)c1cc(C(=O)OC)n(Cc2ccc(Cl)cc2Cl)n1 | -12.3
Cc1cc(OCCN2CCCC2)ccc1[N+](=O)[O-].O=C(O)C(=O)O | -9.82
CCc1nnc(NC(=O)c2cccc(S(=O)(=O)N(C)c3ccc(OC)cc3)c2)s1 | 33.6
COc1cccc(CN2CC(C(=O)NCCCc3ccc(C)cc3)CCC2=O)c1 (centres unmarked) | -28.4
COc1ccc(CCNC(=O)c2nn(C)cc2Cl)cc1 | -3.6
CCCCn1c(=O)[nH]c(=O)c2c(C(=O)OCC)cc(-c3cccs3)nc21 | 2.87
CSc1nc(C)c(CCO)c(=O)[nH]1 | 7.81
CCN1CCN(c2cc(C)c3cc(NC(=S)N(CC)CC)ccc3n2)CC1 | -43.9
CC(C)[C@H](NC(=O)c1ccccc1)C(=O)Nc1ccc2c(c1)OCO2 | 6.91
